Results taken from publication PMC12803953, “The MO25 protein Pmo25 functions in contractile ring stability and Sid2 localization during cytokinesis” (iScience, 2025).
These are yes or no findings as the source states them, for the method shown. For part of these data: Binding seen in cells or lysates may run through a third protein. Some results given as binding are weak or reduced against the parent protein; the word gives no strength. Tags and fused reporters may be left off the sequences shown. Blank lines part the entries; values can stand above or below the binder they belong to.

Sequences of proteins named here, by UniProt entry; tags and fusion partners are left off.
UniProt Q09196: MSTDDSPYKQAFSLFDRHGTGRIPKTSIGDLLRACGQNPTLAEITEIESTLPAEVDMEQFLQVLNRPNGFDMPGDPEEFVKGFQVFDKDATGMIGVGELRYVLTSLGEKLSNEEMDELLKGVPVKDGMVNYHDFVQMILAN

Experiments:
[1] = molecular target: T1, Pmo25-mECitrine (S. pombe) (UniProt Q9P7Q8); test: co-IP; S. pombe cell extracts, tagged proteins under native promoters; anti-GFP polyclonal antibody on protein G Dynabeads, 1.5 h at 4°C; IP buffer 50 mM HEPES pH 7.5, 150 mM NaCl, 1 mM EDTA, 0.5% NP-40; blot with anti-Myc and anti-GFP
T1 sequence: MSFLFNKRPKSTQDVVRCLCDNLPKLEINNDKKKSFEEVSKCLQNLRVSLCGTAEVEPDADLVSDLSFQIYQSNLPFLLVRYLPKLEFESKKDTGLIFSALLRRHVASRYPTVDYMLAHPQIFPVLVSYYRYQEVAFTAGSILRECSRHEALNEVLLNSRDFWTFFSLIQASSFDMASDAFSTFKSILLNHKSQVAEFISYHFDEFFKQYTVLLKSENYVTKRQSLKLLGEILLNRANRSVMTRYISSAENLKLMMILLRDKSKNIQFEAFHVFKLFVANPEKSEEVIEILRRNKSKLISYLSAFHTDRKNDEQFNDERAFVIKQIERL

[2] = molecular target: T2, BD-Ync13 COOH-terminus (591–1237 aa) (S. pombe) (UniProt O13683); test: two-hybrid; S. cerevisiae MaV203; Ync13 fragments in pGBT9 (BD) as baits, prey from the pACT2 library; reporters URA3, HIS3, LacZ; quadruple dropout medium with 3AT and LacZ coloration
T2 sequence: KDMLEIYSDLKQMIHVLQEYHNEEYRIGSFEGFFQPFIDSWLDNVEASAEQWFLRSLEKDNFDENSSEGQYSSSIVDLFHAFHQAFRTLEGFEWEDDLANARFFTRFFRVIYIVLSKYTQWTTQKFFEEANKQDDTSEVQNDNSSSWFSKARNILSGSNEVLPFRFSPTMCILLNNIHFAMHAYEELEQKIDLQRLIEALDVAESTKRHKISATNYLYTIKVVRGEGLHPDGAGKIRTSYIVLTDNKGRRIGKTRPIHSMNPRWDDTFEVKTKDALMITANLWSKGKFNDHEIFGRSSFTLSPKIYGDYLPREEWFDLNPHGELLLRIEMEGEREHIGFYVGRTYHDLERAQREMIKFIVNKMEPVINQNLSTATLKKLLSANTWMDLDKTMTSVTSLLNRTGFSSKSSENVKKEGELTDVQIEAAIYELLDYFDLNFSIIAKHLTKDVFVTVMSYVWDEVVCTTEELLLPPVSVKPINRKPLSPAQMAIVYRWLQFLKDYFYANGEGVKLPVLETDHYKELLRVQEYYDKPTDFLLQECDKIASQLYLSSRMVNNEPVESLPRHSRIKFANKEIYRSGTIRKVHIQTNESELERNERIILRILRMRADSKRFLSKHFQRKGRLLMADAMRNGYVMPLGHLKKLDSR

[3] = molecular target: T3, BD-Ync13 NH2-terminus (1–590 aa) (S. pombe) (UniProt O13683); test: as above
T3 sequence: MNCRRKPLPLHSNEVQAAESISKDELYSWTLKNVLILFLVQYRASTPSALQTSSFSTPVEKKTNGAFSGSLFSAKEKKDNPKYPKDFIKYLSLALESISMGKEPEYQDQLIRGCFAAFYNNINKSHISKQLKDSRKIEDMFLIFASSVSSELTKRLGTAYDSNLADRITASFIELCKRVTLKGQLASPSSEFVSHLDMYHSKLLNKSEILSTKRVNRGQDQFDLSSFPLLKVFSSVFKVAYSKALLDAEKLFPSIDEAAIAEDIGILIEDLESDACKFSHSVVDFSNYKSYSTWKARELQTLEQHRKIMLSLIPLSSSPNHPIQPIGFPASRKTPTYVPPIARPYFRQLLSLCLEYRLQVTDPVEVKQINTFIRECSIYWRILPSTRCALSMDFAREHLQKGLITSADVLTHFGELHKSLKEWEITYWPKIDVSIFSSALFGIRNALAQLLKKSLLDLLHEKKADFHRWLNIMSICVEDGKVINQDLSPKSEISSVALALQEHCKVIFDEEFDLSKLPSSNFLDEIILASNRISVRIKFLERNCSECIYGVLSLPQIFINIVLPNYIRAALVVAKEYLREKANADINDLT

[4] = molecular target: BD-Cdc4 (full length Cdc4 in pGBT9) (S. pombe) (UniProt Q09196); test: two-hybrid; S. cerevisiae MaV203; full length Pmo25 in pVP16 (AD) with full length contractile-ring proteins in pGBT9 (BD); LacZ as a reporter
[5] = molecular target: T4, MBP-Ync13-(591–1130)-6His (S. pombe, UniProt O13683 591-1130); test: pull-down; MBP-Ync13 proteins bound to amylose beads, incubated with Pmo25-6His proteins 1 h at 4°C; binding buffer 137 mM NaCl, 2 mM KCl, 10 mM Na2HPO4, 2 mM KH2PO4, 0.5 mM DTT, 10% glycerol, pH 7.4; 4 washes; beads on SDS-PAGE, Coomassie Blue; both purified
T4 construct: The cloning of this fragment is not described; not shown: MBP, N-terminal, kept; His6, C-terminal, kept
T4 sequence (looked up): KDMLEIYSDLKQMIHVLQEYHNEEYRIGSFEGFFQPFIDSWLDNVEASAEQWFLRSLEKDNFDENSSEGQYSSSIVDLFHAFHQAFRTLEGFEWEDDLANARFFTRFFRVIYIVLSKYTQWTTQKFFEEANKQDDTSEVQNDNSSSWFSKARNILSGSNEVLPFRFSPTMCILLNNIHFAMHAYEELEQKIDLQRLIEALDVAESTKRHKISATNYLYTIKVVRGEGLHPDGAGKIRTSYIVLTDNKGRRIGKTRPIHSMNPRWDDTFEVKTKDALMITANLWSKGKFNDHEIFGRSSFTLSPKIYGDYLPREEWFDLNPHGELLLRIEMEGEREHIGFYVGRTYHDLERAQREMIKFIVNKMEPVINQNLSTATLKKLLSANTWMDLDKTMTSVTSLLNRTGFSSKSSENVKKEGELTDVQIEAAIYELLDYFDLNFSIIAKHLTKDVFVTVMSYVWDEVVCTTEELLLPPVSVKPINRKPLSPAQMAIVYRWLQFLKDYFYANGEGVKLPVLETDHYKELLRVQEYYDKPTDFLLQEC

mYFP-Cdc4 (S. pombe) = mYFP-Cdc4 (S. pombe) (UniProt Q09196); test: co-IP; S. pombe cell extracts, tagged proteins under native promoters; anti-GFP polyclonal antibody on protein G Dynabeads, 1.5 h at 4°C; IP buffer 50 mM HEPES pH 7.5, 150 mM NaCl, 1 mM EDTA, 0.5% NP-40; blot with anti-Myc and anti-GFP

binding [1]: binds
B1: Sid2-13Myc (enzyme, UniProt Q09898 1-607)
chain: MNRVNDMSPVEGDLGLQLSSEADKKFDAYMKRHGLFEPGNLSNNDKERNLEDQFNSMKLSPVASSKENYPDNHMHSKHISKLPIASPIPRGLDRSGELSYKDNNHWSDRSSTGSPRWENGSMNLSVEEMEKVVQPKVKRMATICQMFFLDHYFEQLHYLYTRKQRARLFEEQLLKEPDSRRDELVKRYNGRERVYLRKRRTRISHGDFQTITQVGQGGYGSVWLARKRDTKEIVALKIMNKSVLHKMDEIRHVLTERDILTTANSEWLVRLLYAFQDTSNIYLAMEFVPGGDFRTLLSNSGVLRDHHAKFYATEMFLAIDALHQLGYIHRDLKPENFLVGASGHIKLTDFGLSSGIISKKKIESMKIRLQEVNNVVVPERSMRERRQVFRTLLSQDPVYAHSVVGSPDYMAPEVLRGENYNHSVDYWSLGCIMYECLSGFPPFSGSNVNETWSNLKNWRKCFQRPHYDDPRDLEFNWRDDAWDFVCHCITDPKDRFCSLKQVMQHPYFSKIDWKNVRTAYRPPFVPDLNSEIDAGYFDDFTNENDMSKYKEVHEKQAAIANMVNTFNKPKRNAFIGFTFRHQKNSHPTSSSSALSSPLSAPSFGTLL

binding [2]: binds
binding [3]: no binding
B2: Pmo25-(19–329)-6His (domain or fragment, S. pombe, UniProt Q9P7Q8 19-329, looked up)
chain: LCDNLPKLEINNDKKKSFEEVSKCLQNLRVSLCGTAEVEPDADLVSDLSFQIYQSNLPFLLVRYLPKLEFESKKDTGLIFSALLRRHVASRYPTVDYMLAHPQIFPVLVSYYRYQEVAFTAGSILRECSRHEALNEVLLNSRDFWTFFSLIQASSFDMASDAFSTFKSILLNHKSQVAEFISYHFDEFFKQYTVLLKSENYVTKRQSLKLLGEILLNRANRSVMTRYISSAENLKLMMILLRDKSKNIQFEAFHVFKLFVANPEKSEEVIEILRRNKSKLISYLSAFHTDRKNDEQFNDERAFVIKQIERL
notes: in pET21a between the N-terminal T7 tag and the C-terminal 6xHis tag; not shown: His6, C-terminal, kept

binding [4]: binds weakly
B3: AD-Pmo25 (full length Pmo25 fused to the VP16 transcription activation domain) (protein, UniProt Q9P7Q8 1-329)
chain: MSFLFNKRPKSTQDVVRCLCDNLPKLEINNDKKKSFEEVSKCLQNLRVSLCGTAEVEPDADLVSDLSFQIYQSNLPFLLVRYLPKLEFESKKDTGLIFSALLRRHVASRYPTVDYMLAHPQIFPVLVSYYRYQEVAFTAGSILRECSRHEALNEVLLNSRDFWTFFSLIQASSFDMASDAFSTFKSILLNHKSQVAEFISYHFDEFFKQYTVLLKSENYVTKRQSLKLLGEILLNRANRSVMTRYISSAENLKLMMILLRDKSKNIQFEAFHVFKLFVANPEKSEEVIEILRRNKSKLISYLSAFHTDRKNDEQFNDERAFVIKQIERL

binding [5]: no binding
B4: Pmo25-full length-6His (protein, UniProt Q9P7Q8 1-329)
chain: MSFLFNKRPKSTQDVVRCLCDNLPKLEINNDKKKSFEEVSKCLQNLRVSLCGTAEVEPDADLVSDLSFQIYQSNLPFLLVRYLPKLEFESKKDTGLIFSALLRRHVASRYPTVDYMLAHPQIFPVLVSYYRYQEVAFTAGSILRECSRHEALNEVLLNSRDFWTFFSLIQASSFDMASDAFSTFKSILLNHKSQVAEFISYHFDEFFKQYTVLLKSENYVTKRQSLKLLGEILLNRANRSVMTRYISSAENLKLMMILLRDKSKNIQFEAFHVFKLFVANPEKSEEVIEILRRNKSKLISYLSAFHTDRKNDEQFNDERAFVIKQIERL

binding (mYFP-Cdc4 (S. pombe)): binds
B5: Pmo25-13Myc (protein, UniProt Q9P7Q8 1-329)
chain: MSFLFNKRPKSTQDVVRCLCDNLPKLEINNDKKKSFEEVSKCLQNLRVSLCGTAEVEPDADLVSDLSFQIYQSNLPFLLVRYLPKLEFESKKDTGLIFSALLRRHVASRYPTVDYMLAHPQIFPVLVSYYRYQEVAFTAGSILRECSRHEALNEVLLNSRDFWTFFSLIQASSFDMASDAFSTFKSILLNHKSQVAEFISYHFDEFFKQYTVLLKSENYVTKRQSLKLLGEILLNRANRSVMTRYISSAENLKLMMILLRDKSKNIQFEAFHVFKLFVANPEKSEEVIEILRRNKSKLISYLSAFHTDRKNDEQFNDERAFVIKQIERL
